According to article PMC6919601, “Identification of Plasmodium dipeptidyl aminopeptidase allosteric inhibitors by high throughput screening” (PLoS ONE, 2019):
Screen size: about 110,000 compounds; about 230 (0.21%) showed an effect of 50% or more. This is one part of the list.

The molecules below were run against DPAP1 (Plasmodium falciparum, UniProt Q8IIJ9) (assay: primary screen, percent inhibition; read by cleavage of a fluorogenic dipeptide substrate; higher = more effect of the substance).
Set-up: species or system P. falciparum D10 trophozoite lysates; single well
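Also: 30 min substrate incubation versus DMSO and 10 µM JCP410 controls.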

Chain of DPAP1 (Q8IIJ9 whole entry, looked up): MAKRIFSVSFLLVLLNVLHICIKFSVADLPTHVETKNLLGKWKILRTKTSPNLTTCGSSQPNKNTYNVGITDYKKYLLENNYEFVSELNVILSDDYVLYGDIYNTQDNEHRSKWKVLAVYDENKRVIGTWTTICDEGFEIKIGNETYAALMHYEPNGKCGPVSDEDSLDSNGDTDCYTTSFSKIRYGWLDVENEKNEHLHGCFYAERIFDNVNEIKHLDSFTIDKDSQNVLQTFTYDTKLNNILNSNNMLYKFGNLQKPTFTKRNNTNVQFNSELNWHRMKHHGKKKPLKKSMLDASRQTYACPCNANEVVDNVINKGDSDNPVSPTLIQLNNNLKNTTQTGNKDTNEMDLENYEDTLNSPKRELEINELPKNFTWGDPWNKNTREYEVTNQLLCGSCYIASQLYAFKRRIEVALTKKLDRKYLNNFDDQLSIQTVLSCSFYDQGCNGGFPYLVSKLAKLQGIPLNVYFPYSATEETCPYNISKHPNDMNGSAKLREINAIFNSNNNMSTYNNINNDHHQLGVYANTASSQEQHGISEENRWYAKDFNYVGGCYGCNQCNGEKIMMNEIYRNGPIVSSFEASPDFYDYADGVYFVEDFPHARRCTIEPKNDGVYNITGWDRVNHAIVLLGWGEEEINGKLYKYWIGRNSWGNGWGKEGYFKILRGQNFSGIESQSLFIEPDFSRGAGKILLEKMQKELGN

Row | SMILES | % Inhibition @ 10 uM [%]
1 | O=C(CCCCCN1C(=O)c2ccccc2C1=O)NC1CCCC1 | 5.7
2 | COc1cccc(OCC(O)CN2CCN(C)CC2)c1 (stereo not drawn) | -3.49
3 | Cc1cccc(OCCCCN2CCCCC2)c1C | -2.28
4 | COc1ccc(CCN2CNc3c(c(=O)n(C)c(=O)n3C)C2)cc1OC | -1.47
5 | Fc1ccc(CN2CCN(c3ccccc3F)CC2)cc1F | -3.71
6 | CCOc1ccccc1N1C(=O)C2C3c4ccccc4C(CO)(c4ccccc43)C2C1=O (stereo not drawn) | -7.34
7 | CCOC(=O)c1[nH]c(C)c(CCC(=O)O)c1C | -3.06
8 | O=c1[nH]c(=O)n(Cc2ccccc2)c2c1C(C(F)(F)F)(C(F)(F)F)NC(C1CCCCC1)=N2 | -6.78
9 | O=S(=O)(Nc1ccccc1Cl)c1ccccc1Cl | 0.132
10 | COc1cc(C(=O)N2CCN(C(=O)c3ccco3)CC2)cc(OC)c1OC | 3.16
11 | CC1(CO)SC2=NCN(c3ccccc3)CN2C1=O (stereo not drawn) | 14.6
12 | Cc1[nH]nc2c1C(c1cc(CN3CCOCC3)cs1)C(C#N)=C(N)O2 (stereo not drawn) | 0.776
13 | O=S(=O)(c1cccc(S(=O)(=O)N2CCN(c3cnccn3)CC2)c1)N1CCOCC1 | -1.29
14 | O=C(c1ccc2c(c1)ncn2-c1ccc(OCc2ccccc2)cc1)N1CCOCC1 | 9.92
15 | COc1cccc(OCC(=O)O/N=C(\N)c2ccncc2)c1 | 2.03
16 | CC(C)C[C@H](Nc1ccccc1C#N)C(=O)NCC#N | -10.1
17 | Cc1nn(-c2ccc(F)cc2)c(-n2cccc2)c1C(=O)N1CCC(C(N)=O)CC1 | 4.01
18 | CN1CCN(c2ccc3c(ccc4c5ccccc5[nH]c34)n2)CC1 | -4.82
19 | CC(C)CCNC(=O)C1CCN(c2nnc(-n3cccc3)s2)CC1 | 2.76
20 | Cc1ccc(OCC(=O)Nc2ccc(S(=O)(=O)N3CCCCC3)cc2)c(Br)c1 | 1.94
21 | O=C(N/C(=C/c1cccnc1)C(=O)N1CCCCCC1)c1cccc(Br)c1 | 4.07
22 | Cc1cc(Br)ccc1OCC(=O)Nc1ccccc1C(=O)Nc1ccccc1 | -7.28
23 | CCOc1ccc(CCN2C(=O)c3ccc(C(=O)O)cc3C2=O)cc1OCC | 4.19
24 | O=C1OC(/C=C/c2ccccc2)=NC/1=C/c1ccc(F)cc1 | 0.944
25 | Cc1[nH]c(SCC(=O)Nc2ccc(Cl)cn2)nc1Cc1ccc(O)cc1 | 3.47
26 | Cc1cc(C)c2[nH]c3nc(S)nnc3c2c1 | 40.8

Row | SMILES | % Inhibition @ 10 uM [%]
27 | O=C1OC(c2ccco2)=N/C1=C\c1ccc(Cl)cc1 | -6.97
28 | CCOc1cc2c(cc1OCC)C(CC(=O)O)N(C(=O)NC13CC4CC(CC(C4)C1)C3)CC2 (stereo not drawn) | 0.677
29 | COCCNC(=O)CSCc1nc(-c2ccccc2F)oc1C | -1.05
30 | COc1cc(OC)c(C2C3=C(O)CCCC3=Nc3ncnn32)cc1OC (stereo not drawn) | 3.32
31 | Cc1cc2ccccc2n1CCNC(=O)COc1ccc2ccccc2c1 | 0.205
32 | CCN1CCC(N2CCN(Cc3ccccc3)CC2)CC1 | -3.6
33 | Cc1sc(NC(=O)C2CCCCC2C(=O)O)c(C(N)=O)c1C (stereo not drawn) | -5.81
34 | Cc1cc(C)c(NC(=O)Cn2c(C)nc3ccccc32)c(C)c1 | 0.13
35 | O=C(CC12CC3CC(CC(C3)C1)C2)NCc1cccnc1 | -4.04
36 | COc1ccc(CN2CCN(Cc3ccco3)CC2)cc1OC | -4.82
37 | CCC(C)NC(=O)CN1C(=O)CSc2ncccc21 (stereo not drawn) | 1.03
38 | CCCOC(=O)c1c(NC(=O)CCCC(=O)O)sc2c1CCC(C)C2 (stereo not drawn) | -4.77
39 | CCc1c2c(nc3sc(C(=O)Nc4ccc(F)cc4)c(N)c13)CC(C)(C)CC2=O | 8.21
40 | CCOc1cc(/C=C2\SC(N3CCN(C)CC3)=NC2=O)ccc1O | 8.94
41 | CCOC(=O)c1c(N)sc2c1CCC1(CCOC(C)(C)C1)C2 (stereo not drawn) | 0.0538
42 | O=C(CCc1nnc2n(CCc3ccccc3)c(=O)c3ccccc3n12)NCCCN1CCOCC1 | 4.16
43 | COc1ccccc1C1C(C#N)=C(N)Oc2cc(O)c(Cl)cc21 (stereo not drawn) | 3.03
44 | COc1cc2c(cc1OC)C(c1cc3c(cc1[N+](=O)[O-])OCO3)N(C(C)=O)CC2 (stereo not drawn) | -2
45 | Cc1ccc(S(=O)(=O)CCc2ccccc2)cc1 | 1.42
46 | COc1cccc(-c2nc(O)c3c(n2)Oc2ccc(C)cc2C3)c1O | 0.655
47 | NC(=O)c1ccc(NC(=O)COc2ccc(S(=O)(=O)NC3CCCC3)cc2)cc1 | -0.545
48 | Cc1ccc(NC(=O)CSC2=C(C#N)C(c3ccco3)CC(=O)N2)cc1Cl (stereo not drawn) | 0.751
49 | Cc1cccc(N2C(=O)CC(N3CCN(c4ccccn4)CC3)C2=O)c1 (stereo not drawn) | 2.44
50 | CCC(C)NC(=O)c1cc(-c2ccc(Br)cc2)[nH]n1 (stereo not drawn) | 5.12
51 | CCCc1nnc2sc(NC(=O)c3ccc(F)cc3)nn12 | 9.28
52 | O=C(COc1ccccc1)Nc1ccc(NC(=O)COc2ccccc2)cc1 | -0.67

Row | SMILES | % Inhibition @ 10 uM [%]
53 | CC1CN(Cc2ccc(Br)o2)CC(C)O1 (stereo not drawn) | 1.87
54 | COc1ccc(C(=O)Nc2ccccc2C(F)(F)F)cc1 | -3.04
55 | O=C1N=C(Nc2ccc(Br)cc2)S/C1=C1\C(=O)Nc2ccc(F)cc21 | 4.83
56 | O=C(Nc1cc(Cl)ccc1Cl)c1ccc(-c2ccccc2)cc1 | -0.771
57 | Cc1ccc(NC(=O)COc2ccc(Cl)cc2C)cc1 | -0.641
58 | O=C(CCC1CCCC1)Nc1cccc(C(=O)O)c1 | 2.84
59 | CCOc1ccccc1NC(=O)c1ccc(Cl)cc1Cl | 5.07
60 | CO/C(O)=C1\C(C)=NC2=C(C(=O)CCC2)C1c1ccc(C)s1 (stereo not drawn) | -3.44
61 | O=S(=O)(NC1CCCc2ccccc21)c1ccc(-c2ccc(O)nn2)s1 (stereo not drawn) | -1.42
62 | CC12CCC(C(=O)Nc3ccc4c(c3)OCO4)(C(=O)C1=O)C2(C)C (stereo not drawn) | 1.78
63 | Cc1ccccc1CNC(=O)CCCn1nc(C)c2c(C)n(-c3ccccc3)nc2c1=O | -1.03
64 | CCOC(=O)N1CCC2(CC1)OC(=O)C(C)=C2C(=O)NCc1ccc(F)cc1 | -1.31
65 | O=C(O)c1cc(S(=O)(=O)Nc2ccc(Br)cc2)c(Cl)cc1Cl | -1.78
66 | N#Cc1nc(/C=C/c2cccs2)oc1NCCCn1ccnc1 | 0.00706
67 | Cc1ccc(C)c(NC(=O)c2cc(F)c(Cl)nc2Cl)c1 | 0.907
68 | Cn1c(N2CCCCC2)nc2c1c(=O)[nH]c(=O)n2C | 4.7
69 | Cc1ccccc1C(=O)NCCN1CCCC1 | 4.88
70 | COc1ccccc1CNC(=O)c1cc2c(=O)oc3ccccc3c2s1 | 1.5
71 | COc1cccc(/C=C2\N=C(c3cc(Cl)ccc3Cl)OC2=O)c1OC | -6.46
72 | CC1CCN(C(=O)CN2C(=O)c3cccc4cccc(c34)C2=O)CC1 | -1.22
73 | CCCCNC(=O)c1nccnc1C(=O)O | 3.31
74 | CCCOc1ccccc1C1NC(=O)NC(C)=C1C(=O)OCC(F)(F)C(F)(F)F (stereo not drawn) | 1.12
75 | CC(C)n1c(C(O)c2ccccc2)nc2ccccc21 (stereo not drawn) | 1.13
76 | O=C(CSc1nnc(-c2c[nH]c3ccccc23)n1-c1ccc(F)cc1)NC1CCCC1 | -6.91
77 | N#CC(=C\c1[nH]c2ccccc2c1O)/C(N)=N/Cc1ccccc1 | -1.26
78 | Cc1ccccc1CNCc1c(C(=O)O)c(C)n(Cc2c(F)cccc2Cl)c1C | 1.41

Row | SMILES | % Inhibition @ 10 uM [%]
79 | Cc1ccc(-c2cc(C(=O)NCCCOC(C)C)c3ccccc3n2)cc1C | 1.16
80 | O=C(NC1CCCCC1NC(=O)c1ccco1)c1ccco1 (stereo not drawn) | 1.59
81 | CCN1CCN(C(=O)c2cc3c(=O)n(Cc4ccccc4)ccc3nc2C)CC1 | 4.32
82 | COCCNC(=O)/C(=C/c1ccccc1)NC(C)=O | -5.64
83 | COCC(C)NC(=O)COCc1cc(-c2ccc3c(c2)OCO3)on1 (stereo not drawn) | 7.44
84 | CCc1ccc(C2C3=C(O)CC(C)(C)CC3=NC(C)=C2C(=O)Nc2ccccc2OC)cc1 (stereo not drawn) | -2.24
85 | CCOC(=O)c1[nH]c(C)c(C(=O)NCCc2ccc(S(N)(=O)=O)cc2)c1C | -2.84
86 | O=C1NN=C(c2ccccc2)C1CCO (stereo not drawn) | 1.67
87 | COc1ccc(NC(=O)c2cccs2)cc1OC | 5.73
88 | CCOc1ccc(CCNC(=O)CN2C(=O)CSc3ncccc32)cc1 | 2.65
89 | CN(C)CCNC(=O)Nc1cn(C)c(=O)c2ccccc12 | 4.91
90 | Cc1ccc(C(=O)Nc2cccc(/C=C/C(=O)O)c2)o1 | -1.66
91 | CCCSCCCNC(=O)C(C)n1nc(CC)n2c(cc3occc32)c1=O (stereo not drawn) | -2.22
92 | NS(=O)(=O)c1ccc(NC(=O)Nc2ccccc2Cl)cc1 | -3.04
93 | COC(=O)c1cc(O)c(OCc2ccccc2)c(O)c1 | -4.24
94 | CCOC(=O)c1c(C)[nH]c(C)c1S(=O)(=O)N1CCC(Cc2ccccc2)CC1 | -2.34
95 | CC1(C)CC(=O)C2=C(C1)OC(N)=C(C#N)C2c1cccc(O)c1 (stereo not drawn) | -3.62
96 | CCc1ccc(-c2nc3c(=O)n(C)c(=O)nc-3n(CC)n2)cc1 | -6.5
97 | COc1ccc(OC)c(/C=C2/NC(=O)N(Cc3ccc(Cl)cc3)C2=O)c1 | -4.93
98 | O=C(NCc1ccco1)c1ccc(-c2cccc(Cl)c2)o1 | -13
99 | Cc1ccc(C2=NS(=O)(=O)N(C)C(C(=O)N(C)C3CCCCC3)=C2)cc1 | 0.655
100 | COc1cc(/C=C(\C#N)c2nc3ccccc3[nH]2)ccc1OC(C)C | -0.725
101 | O=C(NCCc1ccccc1)C(=O)Nc1cccc(C(F)(F)F)c1 | -2.18
102 | Cc1ccc2c(Cl)c(C(=O)NCc3cccnc3)sc2c1 | 1.03
